# In PubChem BioAssay AID887 (National Center for Advancing Translational Sciences (NCATS), 2007):
# The whole screen tested about 74,000 compounds, of which about 1,100 (1.5%) were called active. The inconclusive results got no clear call from the source; some entries with a clear call stand among them for comparison. The call rests on the fitted dose curve; in most records, active means well fitted inhibition curve with a large enough effect; inconclusive means small, poorly fitted or top-dose-only effect; inactive means no such curve, though single readings can be large or run the other way. No potency is given beside an inconclusive call; the fits are too rough.
# Biological target: Polyunsaturated fatty acid lipoxygenase ALOX15 (Homo sapiens) (UniProt P16050)
# Experiment: qHTS Assay for Inhibitors of 15-hLO (15-human lipoxygenase); further: nearly all actives have a fitted effect of over 55% in size
# Conditions: purified 15hLO-1, xylenol orange hydroperoxide absorbance; series mostly up to 57.1 µM
# Procedure, shortened: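 Purified human 15hLO-1 (40 nM) in 25 mM Hepes pH 7.5, 0.01% Triton X-100, preincubated 15 min RT with compound, then 50 uM arachidonic acid for 6 min. Hydroperoxide read by ferrous/xylenol orange, 30 min; 573/405 nm absorbance ratio gave progress.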
# Potency means the concentration at half of the fitted maximal effect; tags describe the fitted curve by direction and shape.
# UniProt P16050, sequence (P16050 whole entry, looked up): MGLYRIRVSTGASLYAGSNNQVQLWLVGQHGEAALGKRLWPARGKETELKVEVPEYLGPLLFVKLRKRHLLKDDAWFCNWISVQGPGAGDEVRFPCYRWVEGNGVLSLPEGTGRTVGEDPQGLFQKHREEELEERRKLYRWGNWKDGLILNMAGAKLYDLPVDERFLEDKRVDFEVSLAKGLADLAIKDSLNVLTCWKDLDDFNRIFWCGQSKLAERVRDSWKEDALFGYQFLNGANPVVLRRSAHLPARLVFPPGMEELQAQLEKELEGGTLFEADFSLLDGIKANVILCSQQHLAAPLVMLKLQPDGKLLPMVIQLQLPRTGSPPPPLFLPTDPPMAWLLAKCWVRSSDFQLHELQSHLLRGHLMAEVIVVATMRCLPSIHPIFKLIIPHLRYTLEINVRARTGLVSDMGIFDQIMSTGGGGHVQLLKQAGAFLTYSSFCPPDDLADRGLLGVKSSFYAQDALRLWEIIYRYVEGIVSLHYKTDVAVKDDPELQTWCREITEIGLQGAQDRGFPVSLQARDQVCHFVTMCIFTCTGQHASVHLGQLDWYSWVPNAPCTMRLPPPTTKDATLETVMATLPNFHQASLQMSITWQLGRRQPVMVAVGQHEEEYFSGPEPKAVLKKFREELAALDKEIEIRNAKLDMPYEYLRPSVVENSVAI
row,Structure (SMILES),Potency
1,O=C(Cc1cccs1)Nc1nc(-c2ccccc2)cs1,inactive
2,CSc1sc(C)cc1C1C(C#N)=C(N)N(c2cccnc2)C2=C1C(=O)CCC2 (stereo unspecified),active: 15.8 µM
3,NC(=O)C1=CN([C@@H]2O[C@@H](COP(=O)(O)OP(=O)(O)OC[C@@H]3O[C@H](n4cnc5c(N)ncnc54)[C@@H](OP(=O)(O)O)[C@@H]3O)[C@H](O)[C@@H]2O)C=CC1,inactive
4,COc1ccc(C2CC(=O)N3CN(c4ccc(C)c(Cl)c4)CSC3=C2C#N)cc1 (stereo unspecified),"inconclusive [inhibitor, partial curve]"
5,CN(C)c1ccc(C2C3=C(CCCC3=O)OC3=C2C(=O)CCC3)cc1,"inconclusive [inhibitor, partial curve]"
6,CSc1nsc(SC)c1C(=O)NCCNS(=O)(=O)c1ccc(C)cc1,"inconclusive [inhibitor, single point]"
7,COc1ccc(NC(C)=O)cc1NC(=O)CSc1nnc(-c2ccccc2)n1N,inactive
8,c1cn(CCCNc2ncnc3sc4c(c23)CCC4)cn1,inactive
9,COc1ccccc1CN(Cc1cc2cc(C)ccc2[nH]c1=O)Cc1nnnn1Cc1ccco1,active: 7.94 µM
10,CCN(CC)S(=O)(=O)c1ccc(NC2CCCc3ccccc32)nc1 (stereo unspecified),"inconclusive [inhibitor, single point]"
11,C=C(CC)C(=O)c1ccc(OCC(=O)O)c(Cl)c1Cl,inactive
12,Cc1ccc(C2CC(=O)N3CN(Cc4ccco4)CSC3=C2C#N)cc1 (stereo unspecified),"inconclusive [inhibitor, partial curve]"
13,CC1CCCCN1C(=O)CSc1nc(C2CC2)nc2c1cnn2-c1ccccc1 (stereo unspecified),"inconclusive [inhibitor, single point]"
14,COc1ccc(-c2nc3cnc(Oc4ccccc4)nc3n(CCC#N)c2=O)cc1,inactive
15,CN(C)Cc1ccccc1-c1nc(N(C)C)c2ccccc2n1,inactive
16,Cc1cccc(C)c1NC(=O)N1CC=C(n2c(=O)[nH]c3ccccc32)CC1,"inconclusive [inhibitor, full curve, poor fit]"
17,CN=c1nc(-c2ccccc2)n(-c2ccccc2)s1,active: 0.794 µM
18,Nc1ncnc2c1ncn2[C@@H]1O[C@H](CO)C[C@@H]1O,"inconclusive [inhibitor, single point]"
19,CN1CCc2c(sc3c2C(=O)NC(c2ccc4c(c2)OCO4)N3)C1 (stereo unspecified),"inconclusive [inhibitor, partial curve]"
20,Clc1ccccc1/C=C\c1ccnc2ccccc12,"inconclusive [inhibitor, partial curve, poor fit]"
21,C1N2CN3CN1CN(C2)C3,inactive
22,Cc1cc(C)c2cc(C#N)c(SCC(=O)NCc3ccco3)nc2c1,"inconclusive [inhibitor, single point]"
23,CCOC(=O)C1CCN(C(=O)c2cnn3c(C)cc(C)nc23)CC1,inactive

row,Structure (SMILES),Potency
1,O=C(/C=C(\O)c1ccccc1)c1ccccc1O,inactive
2,CCn1c(SCC(=O)OCc2ccccc2)nnc1-c1ccco1,"inconclusive [inhibitor, single point]"
3,COc1cc2c(cc1OC)C(c1ccc3c(c1)OCO3)C1=C(CC(C)(C)CC1=O)N2 (stereo unspecified),"inconclusive [inhibitor, single point]"
4,CNC1C(OC2C(O[C@@H]3C(O)C(O)[C@@H](N=C(N)N)C(O)C3N=C(N)N)OC(C)[C@@]2(O)CO)OC(CO)C(O)C1O (stereo partly specified),inactive
5,COc1ccc(S(=O)(=O)N(C(C)=O)c2ccc3oc(=O)sc3c2)cc1,active: 5.01 µM
6,C[C@@H]1C(=O)O[C@H]2[C@@H](O)[C@@]34[C@H]5CC(C(C)(C)C)[C@]36[C@@H](OC(=O)[C@@H]6O)O[C@@]4(C(=O)O5)[C@@]12O (stereo partly specified),inactive
7,Cc1cc(N)n2ncc(-c3ccccc3)c2n1,"inconclusive [inhibitor, full curve, poor fit]"
8,COCCn1c(C)cc(C(=O)COC(=O)c2ccc3ncsc3c2)c1C,"inconclusive [inhibitor, single point]"
9,CCCn1c(C)nc2c(NCCCN3CCCCC3C)nc(C)nc21 (stereo unspecified),inactive
10,CCN(C(=O)c1cccs1)c1nnc(-c2ccncc2)s1,"inconclusive [inhibitor, single point]"
11,NC(=O)c1sc2nccc(Nc3ccccc3)c2c1N,"inconclusive [inhibitor, partial curve]"
12,c1cn2c(NC3CCCC3)c(-c3ccc(N4CCOCC4)cc3)nc2cn1,inactive
13,O=C(NCc1ccco1)C1CCN(C(=O)c2cc3sccc3n2Cc2ccc(Cl)cc2)CC1,"inconclusive [inhibitor, partial curve]"
14,COc1ccc(OC)c(-n2c(-c3cccc(O)c3)n[nH]c2=S)c1,active: 2.51 µM
15,COc1ccc(-c2nc3cnc(N4CCOCC4)nc3n(CCc3ccccc3)c2=O)cc1,"inconclusive [inhibitor, single point]"
16,c1ccc(C2=Nn3c(nnc3-c3cc(-c4ccccc4)n[nH]3)SC2)cc1,"inconclusive [inhibitor, partial curve]"
17,CC1Cc2ccccc2N1C(=O)c1cnsn1 (stereo unspecified),active: 3.98 µM
18,O=c1c(-c2ccccc2)coc2cc(O)cc(O)c12,active: 3.16 µM
19,Oc1cc(O)c2c(c1)O[C@H](c1ccc(O)c(O)c1)[C@@H](O)[C@@H]2c1c(O)cc(O)c2c1O[C@@H](c1ccc(O)c(O)c1)[C@H](O)C2,"inconclusive [inhibitor, single point]"
20,CC(NS(=O)(=O)c1ccc(Cl)cc1)C(c1cccs1)N1CCN(C)CC1 (stereo unspecified),"inconclusive [inhibitor, partial curve, poor fit]"
21,CC(=O)CCc1c(C)[nH]c2ccc(NC(C)=O)cc2c1=O,"inconclusive [inhibitor, single point]"
22,CN(C)c1ccc(NC(=O)CCCc2ccccc2)cc1,active: 10 µM
23,CN(Cc1ccco1)c1ncncc1-c1ccoc1,"inconclusive [inhibitor, partial curve]"
